Among all 310,000 compounds or so, about 14,000 (4.5%) showed an effect of 50% or more. Effects have a minus sign here. This is one part of the list.
target: human ether-à-go-go-related gene (hERG) potassium channel (human, UniProt Q12809); test: primary screen, population patch clamp on CHO cells stably expressing hERG
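Also: peak tail current of the secondary pulse compared with the same well before compound.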

Chain of human ether-à-go-go-related gene (hERG) potassium channel (Q12809 whole entry, looked up): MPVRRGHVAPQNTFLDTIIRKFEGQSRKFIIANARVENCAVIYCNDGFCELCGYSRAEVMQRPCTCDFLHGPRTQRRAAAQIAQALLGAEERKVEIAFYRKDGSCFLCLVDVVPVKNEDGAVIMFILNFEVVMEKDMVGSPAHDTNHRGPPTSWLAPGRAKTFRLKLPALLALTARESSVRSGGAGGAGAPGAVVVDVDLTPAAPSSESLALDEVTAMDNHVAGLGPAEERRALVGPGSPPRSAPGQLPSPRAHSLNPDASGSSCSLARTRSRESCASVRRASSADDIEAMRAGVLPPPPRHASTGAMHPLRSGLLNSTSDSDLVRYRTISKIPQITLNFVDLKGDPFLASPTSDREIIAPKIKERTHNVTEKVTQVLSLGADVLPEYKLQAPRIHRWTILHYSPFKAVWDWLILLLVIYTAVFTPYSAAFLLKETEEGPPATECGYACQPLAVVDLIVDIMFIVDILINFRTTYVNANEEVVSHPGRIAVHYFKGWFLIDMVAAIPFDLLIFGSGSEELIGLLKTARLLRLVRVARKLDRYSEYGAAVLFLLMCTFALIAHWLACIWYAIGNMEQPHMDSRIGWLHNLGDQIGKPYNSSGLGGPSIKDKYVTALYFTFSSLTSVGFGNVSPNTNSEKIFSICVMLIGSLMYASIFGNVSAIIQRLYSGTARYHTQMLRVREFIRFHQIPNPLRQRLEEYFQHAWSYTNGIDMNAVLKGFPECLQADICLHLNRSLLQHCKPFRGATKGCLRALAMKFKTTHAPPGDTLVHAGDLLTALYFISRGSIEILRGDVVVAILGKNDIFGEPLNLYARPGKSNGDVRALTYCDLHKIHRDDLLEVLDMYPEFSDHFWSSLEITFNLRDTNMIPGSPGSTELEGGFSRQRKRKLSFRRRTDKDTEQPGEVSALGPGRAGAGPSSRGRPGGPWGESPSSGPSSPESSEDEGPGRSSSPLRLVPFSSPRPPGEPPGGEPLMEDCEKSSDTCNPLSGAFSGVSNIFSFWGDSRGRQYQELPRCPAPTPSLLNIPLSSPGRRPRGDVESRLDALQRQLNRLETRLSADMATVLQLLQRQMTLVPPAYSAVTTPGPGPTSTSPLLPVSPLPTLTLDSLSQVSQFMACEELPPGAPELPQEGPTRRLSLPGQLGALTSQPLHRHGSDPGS

SMILES	hERG current change (%, negative = inhibition) at 10uM [%]
C/C(=N\OCC(=O)OC(C)C(=O)Nc1ccc(C(N)=O)cc1)c1ccc2c(c1)OCO2 (centres unmarked)	9.34
Cc1cc(C)nc(Sc2ncnc3sc4c(c23)CCC4)n1	-3.92
COc1ccc(NC(=O)c2ccccc2N(Cc2ccccc2)S(C)(=O)=O)cc1	-9.52
Fc1ccc(N2CCN(C(=S)NCc3ccco3)CC2)cc1	-14
Nc1cc(=O)[nH]c(SCc2cccc3ccccc23)n1	16.7
CN(CCCNC(=O)c1ccc(/C=N/O)nc1)CCCN(C)Cc1ccccc1	-28.2
O=C(CSc1nc2ccccc2o1)c1cc2ccccc2oc1=O	-6.45
O=C(COC(=O)c1ccccc1Nc1ccccc1)NCc1ccccc1	2.68
Cc1nn(C)cc1C1C(C#N)=C(N)N(c2cccnc2)C2=C1C(=O)CCC2 (centres unmarked)	8.05
CCN(CC)CCNC(=O)c1cn(CC)c2cc(N3CCN(C)CC3)c(F)cc2c1=O.Cl	2.96
O=C(O)COc1ccccc1/C=N/NC(=O)c1cc2ccccc2cc1O	26
CCOC(=O)Nc1sc(NS(=O)(=O)c2ccccc2)nc1C	11
COc1ccccc1NC(=O)c1cc(Cl)ccc1NC(=O)c1ccco1	-1.81
CC(C)(C(N)=O)c1ccccc1	14.4
Cc1ccsc1/C=N/n1c(-c2ccco2)n[nH]c1=S	20.7
O=C(COC(=O)c1cc([N+](=O)[O-])ccc1Cl)NC1CCCC1	-26.8
CCOc1ccsc1C(=O)O	11
O=C(CN1C(=O)/C(=C\c2ccc(C(F)(F)F)cc2)Sc2ccccc21)NCc1ccco1	-5.39
N/C(=N\OC(=O)c1cc(Cl)ccc1Cl)c1cccnc1	7.89

SMILES	hERG current change (%, negative = inhibition) at 10uM [%]
Cc1sc2nc(CN3CCCC3)nc(NCc3ccncc3)c2c1C	-69.1
S=C(Cc1cccnc1)N1CCOCC1	17.8
COc1ccccc1CC(=O)Nc1sc2c(c1C(N)=O)CCCC2	10.2
Cc1ccc2c(COC(=O)c3ccc(NC(=O)CC#N)cc3)cc(=O)oc2c1C	3.63
O=c1[nH]cnc(O)c1C(c1ccc(Br)cc1)c1c(O)nc[nH]c1=O	13.5
CC1CN/C(=C\C(=O)c2ccc(Br)cc2)C(=O)N1 (centres unmarked)	-3.87
Cc1ccc(C(=O)N2Cc3ccccc3CC2C(=O)O)cc1 (centres unmarked)	-13.9
N/C(=N\c1nc2ccccc2o1)NC(=O)/C=C/c1ccccc1	0.904
Cc1ccc(Cn2c(=O)n(-c3ccccc3)c(=O)c3ccc(C(=O)NCc4ccco4)cc32)cc1	-10.1
Cc1cccc(C)c1NC(=O)CN(C)C(=O)c1ccc2nc[nH]c2c1	20.8
CCOC(=O)C1=C(CC)Nc2ccccc2N=C1NC(=O)CCNC(C)=O	-0.111
Cc1nn(-c2ccccc2)c(OC(=O)c2cccs2)c1S(=O)(=O)c1ccc([N+](=O)[O-])cc1	10.1
CC(C)(C)c1ccc(C(=O)NN2CCOCC2)cc1	-36.6
O=C(O)c1cccc(N=NN2CCCCCC2)c1	5.08
CCN1CCCC1CNS(=O)(=O)c1ccc(Cl)c(C(F)(F)F)c1 (centres unmarked)	-19.1
CCOC(=O)C1CCCCN1Cc1cc(OC)ccc1OC (centres unmarked)	5.17
O=C(CCc1ccc(Oc2cc([N+](=O)[O-])cc([N+](=O)[O-])c2)cc1)Nc1cccc(Cl)c1	1.31
N#Cc1nc(Cc2ccccc2)oc1N1CCN(c2ccccc2)CC1	-20
O=C(CCCN1C(=O)/C(=C/c2ccccc2)SC1=S)Nc1ccc(O)cc1	1.19

SMILES	hERG current change (%, negative = inhibition) at 10uM [%]
COc1ccc(NC(=S)NCc2cccs2)cc1	14.5
CCOc1ccc(OCC(=O)N2CCOCC2)cc1	10.2
O=C(O)c1ccc(N/N=C/C=C/c2ccccc2[N+](=O)[O-])cc1	6.89
CC(C(=O)NC1CCCCCC1)N(c1ccccc1)S(C)(=O)=O (centres unmarked)	22.5
CCCC(=O)N/C(N)=N/c1nc2ccccc2o1	-26
CCc1ccccc1NC(=O)C(C#N)Cc1cccnc1 (centres unmarked)	-1.27
O=C(OCc1ccccc1F)c1cnc(Cl)c(Cl)c1	9.52
O=C(Nc1ccc(NC(=O)C2CC2)cn1)c1ccccc1Cl	-0.204
O=C(Oc1ccc(Cl)c2cccnc12)N1CCCCC1	-5.05
COc1ccc(-c2ncc3ccccn23)cc1OC.O=C(O)C(=O)O	-1.63
Cc1ccc(CCNC(=O)C2CCN(c3nn4c(=O)cc(C)nc4s3)CC2)cc1	-33.4
CCCCn1c(=O)[nH]c(=O)c2c1nc(COc1ccc(C#N)cc1)n2CCC	-57.2
CCOC(=O)c1c(NC(=O)COC(=O)c2nc(Cl)ccc2Cl)sc(C(=O)N(C)C)c1C	0.337
CS(=O)(=O)N1CCC(C(=O)NNC(=O)Nc2ccc(F)c(Cl)c2)CC1	-11.6
COc1cc(OC)c(OC)cc1CN1CCN(C(=O)COc2ccc3ccccc3c2)CC1.O=C(O)C(=O)O	-36.4
COc1ccc(-c2noc(N3CCC(C(=O)NCc4ccc(F)cc4)CC3)n2)cc1	-20.4
COc1ccc(N2CCN(c3c(S(=O)(=O)c4ccccc4)cnc4ccc(OC)cc34)CC2)cc1	-17.7
CC(=O)c1ccc(N2C(=O)[C@@H]3C(CCC(N)=O)NC4(C(=O)Nc5c4ccc(Cl)c5C)[C@@H]3C2=O)cc1 (some centres unmarked)	11

— publication PMC4336329 (PLoS ONE, 2015)
